Measurements reported in PubChem BioAssay AID624173 (National Center for Advancing Translational Sciences (NCATS), 2012).
Among all 410,000 compounds or so, about 490 (0.12%) were called active. The inconclusive results got no clear call from the source; some entries with a clear call stand among them for comparison. The call rests on the fitted dose curve; in most records, active means well fitted inhibition curve with a large enough effect; inconclusive means small, poorly fitted or top-dose-only effect; inactive means flat fitted curve, though single readings scatter. Potencies beside an inconclusive call are fits to weak or partial responses and may not hold up.
Further: nearly all actives have a fitted effect of over 50% in size.
On the % scale 0 is the no-effect control and ±100 the full control effect; potency means the concentration at half of the fitted maximal effect; tags describe the fitted curve by direction and shape.

These compounds were tested against pyruvate kinase (Trypanosoma brucei) (UniProt Q57TT1) (assay: qHTS of Trypanosoma Brucei Inhibitors). Conditions: TbPYK enzyme, Kinase-Glo Plus ATP luminescence, 45 min; series mostly up to 76.8 µM; activity, negative = inhibition: at the top concentration.
Procedure, shortened: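 In this concentration-response screen, enzyme-free wells defined baseline while DMSO plates tracked drift. Each reaction combined TbPYK, substrate, compound and 130 uM ADP for 45 min at room temperature. Kinase-Glo Plus luminescence gave the signal.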
In the case of `CCN(CC)c1ccc(NC(=O)c2ccccc2)cc1S(=O)(=O)Nc1ccccc1OC`, the Potency is reported as inconclusive: 3.55 µM [inhibitor, partial curve, poor fit].
In the case of `Cc1ccc(-c2nn3c(C)nnc3s2)cc1NC(=O)c1ccc(-c2cccc(Cl)c2)o1`, the “activity, negative = inhibition” value is reported as inactive: -1.41%.
In the case of `C=CCn1c(SCC(=O)Nc2cccc(S(N)(=O)=O)c2)nnc1C1CCCCC1`, the Potency is reported as inconclusive: 28.2 µM [inhibitor, single point].
In the case of `N#CC1=C2SCN(Cc3ccco3)CN2C(=O)CC1c1cccc2ccccc12` (stereo unspecified), the Potency is reported as inconclusive: 1 µM [inhibitor, full curve, poor fit].
In the case of `CC(=O)N(c1ccc2oc(=O)sc2c1)S(=O)(=O)c1ccccc1`, the Potency is reported as inconclusive: 17.8 µM [inhibitor, partial curve, poor fit].
In the case of `COCCn1c(C23CC4CC(CC(C4)C2)C3)n[nH]c1=S`, the Potency is reported as active: 7.94 µM.
For `COc1ccc(CC(=O)NCc2n[nH]c(=S)n2-c2cccc(Cl)c2)cc1`, the Potency was inconclusive: 12.6 µM [inhibitor, partial curve].
In the case of `CC[n+]1c(/C=C2/C=C(C)CC(C)C2)sc2ccccc21` (stereo unspecified), the Potency is reported as inconclusive: 25.1 µM [inhibitor, partial curve, poor fit].
For `CC(C)CC(NC(=O)C1CCCCC1)C(=O)NCc1ccccn1` (stereo unspecified), the Potency was inconclusive: 35.5 µM [inhibitor, single point].
For `O=C1NC(=O)/C(=C\c2ccc(O)cc2O)S1`, the Potency was inconclusive: 35.5 µM [inhibitor, partial curve, poor fit].
For `COc1ccccc1Nc1n[nH]c(=S)s1`, the Potency was inconclusive: 3.55 µM [inhibitor, partial curve, poor fit].
For `O=C(N/N=C/C=C/c1ccccc1[N+](=O)[O-])c1cccs1`, the “activity, negative = inhibition” value was inactive: -1.51%.
In the case of `CC(C)(C)c1nc2ccccc2c2nnc(SCC(=O)Nc3nc4ccccc4s3)n12`, the Potency is reported as inconclusive: 6.31 µM [inhibitor, partial curve, poor fit].
In the case of `CS(=O)(=O)c1sc2nc(-c3cccs3)cc(-c3ccccc3)c2c1N`, the Potency is reported as inconclusive: 35.5 µM [inhibitor, partial curve].
For `S=c1[nH]nc(-c2cccnc2)n1/N=C/c1cccs1`, the Potency was inconclusive: 22.4 µM [inhibitor, partial curve, poor fit].
For `O=C1c2c([N+](=O)[O-])cc([N+](=O)[O-])cc2S(=O)N1Cc1ccccc1` (stereo unspecified), the Potency was inconclusive: 35.5 µM [inhibitor, partial curve, poor fit].
For `C#CCSc1nnnn1-c1ccc(OCC)cc1`, the “activity, negative = inhibition” value was inactive: -12.1%.
In the case of `O=C(Nc1nc2cc3c(cc2s1)OCCO3)C1=COCCO1`, the Potency is reported as inconclusive: 31.6 µM [inhibitor, single point].
`COc1cc(NC(=O)Cn2c(=O)cc(C)c3c(C)nn(-c4ccc(C)cc4)c32)cc(OC)c1` was tested, and the “activity, negative = inhibition” value was inactive: -2.13%.
In the case of `COc1ccc(Cc2n[nH]c(=S)n2-c2ccc3c(c2)OCCO3)cc1`, the Potency is reported as inconclusive: 7.08 µM [inhibitor, partial curve, poor fit].
With `S=c1nc(C2CCCCC2)n(-c2ccccc2)[nH]1` the Potency was inconclusive: 4.47 µM [inhibitor, full curve, poor fit].
For `CC(C)c1ccc(OCC(=O)NCCS(=O)(=O)N2CCN(c3ccc(F)cc3)CC2)cc1`, the “activity, negative = inhibition” value was inactive: 3.55%.
With `Cc1ccccc1CN1C(=O)c2ccccc2S(=O)c2ccc(C(=O)NCc3ccc(Cl)cc3)cc21` (stereo unspecified) the “activity, negative = inhibition” value was inactive: -3.04%.
In the case of `COc1ccc(OCc2nnc3n2N=C(c2ccccc2)C(CC(=O)O)S3)cc1` (stereo unspecified), the Potency is reported as inconclusive: 31.6 µM [inhibitor, partial curve, poor fit].
For `O=C(Nc1nc(-c2ccccn2)cs1)c1ccc([N+](=O)[O-])o1`, the Potency was inconclusive: 25.1 µM [inhibitor, partial curve].
For `CCCc1ccc(-c2cc(C(=O)Nc3ccc([N+](=O)[O-])cn3)c3ccccc3n2)cc1`, the “activity, negative = inhibition” value was inactive: -3.88%.
In the case of `COc1cc(/C=C2/C(=O)NN(c3cccc(C)c3)C2=O)ccc1OC(=O)c1ccco1`, the Potency is reported as inconclusive: 39.8 µM [inhibitor, single point].
`CC(C(=O)NC(=O)NC1CCCCC1)N1CCN(c2ccc(O)cc2)CC1` (stereo unspecified) was tested, and the Potency was inconclusive: 25.1 µM [inhibitor, partial curve, poor fit].
With `CCOc1cc(/C=C2\C(=O)N(Cc3ccco3)C(C)=C2C(=O)OC)ccc1O` the Potency was inconclusive: 11.2 µM [inhibitor, partial curve, poor fit].
`Cc1cc[n+](C2=C([O-])c3ccccc3C(=O)/C2=N\S(=O)(=O)c2cccs2)cc1C` was tested, and the “activity, negative = inhibition” value was inactive: -4.95%.
In the case of `CN(C)c1ccc(NC2=C(Cl)C(=O)c3ccccc3C2=O)cc1`, the Potency is reported as inconclusive: 35.5 µM [inhibitor, single point].
`OCc1ccccc1SSc1ccccc1CO` was tested, and the Potency was inconclusive: 39.8 µM [inhibitor, partial curve].
For `O=C(O)c1ccccc1CSc1nnc2c(n1)[nH]c1ccccc12`, the Potency was inconclusive: 39.8 µM [inhibitor, single point].
With `C[C@@H]1CN=C2N(CCNC(=O)CCC3CCCCC3)[C@H](Cc3ccc(O)cc3)CN21` the Potency was inconclusive: 28.2 µM [inhibitor, single point].
In the case of `CSCCC(C(=O)N1C[C@]2(C)C[C@H]1CC(C)(C)C2)N1C(=O)c2ccccc2C1=O` (stereo partly specified), the Potency is reported as inconclusive: 50.1 µM [inhibitor, single point].
`Nc1nc(-c2cc3c(cc2Cl)OCCO3)cs1` was tested, and the “activity, negative = inhibition” value was inactive: 1.5%.
In the case of `O=S(=O)(c1cc(F)ccc1F)N1CCN(C2CCCCC2)CC1`, the “activity, negative = inhibition” value is reported as inactive: -3.88%.
For `Cc1cc(C)n2c(=S)[nH]nc2n1`, the Potency was active: 10 µM.
For `COCC1CCN(Cc2nc(-c3ccc4c(c3)OCO4)no2)C1` (stereo unspecified), the “activity, negative = inhibition” value was inactive: 0.129%.
`C=CCN1C(=O)N/C(=C/c2ccc(C)o2)C1=O` was tested, and the Potency was inconclusive: 31.6 µM [inhibitor, single point].
For `CCn1c(COc2ccc(C)cc2)nnc1SCc1nc2ccccc2[nH]1`, the Potency was inconclusive: 50.1 µM [inhibitor, single point].
`Clc1ccccc1Nc1nnc(-c2ccncc2)s1` was tested, and the Potency was inconclusive: 28.2 µM [inhibitor, partial curve].
In the case of `Cc1cc(C)c2cc(C(=O)Nc3ccc(C)c(F)c3)[nH]c2c1`, the Potency is reported as inconclusive: 20 µM [inhibitor, partial curve, poor fit].
In the case of `C=CCn1c(COc2ccc(Cl)cc2)nnc1SCC(=O)NCC(=O)OCC`, the Potency is reported as inconclusive: 28.2 µM [inhibitor, single point].
`CCn1c(C)nc2cc(C(=O)NNS(=O)(=O)c3c(C)c(C)cc(C)c3C)ccc21` was tested, and the Potency was inconclusive: 50.1 µM [inhibitor, single point].
`COc1ccc(OC)c(-n2c(-c3ccn[nH]3)n[nH]c2=S)c1` was tested, and the Potency was inconclusive: 6.31 µM [inhibitor, full curve].
`CC(C)Cn1c(-c2ccccc2F)n[nH]c1=S` was tested, and the Potency was inconclusive: 14.1 µM [inhibitor, partial curve].
With `CCN(CC)C(=O)CSc1nc2c(sc(=S)n2-c2ccccc2)c(=O)n1Cc1ccco1` the Potency was inconclusive: 35.5 µM [inhibitor, single point].
`CCCOc1ccc(/C=N/Nc2ccccc2[N+](=O)[O-])c(O)c1` was tested, and the Potency was inconclusive: 39.8 µM [inhibitor, single point].
For `CC1(C)CC(CCNC(=O)c2ccco2)CC(C)(C)N1`, the “activity, negative = inhibition” value was inactive: 0%.
With `N#Cc1c(-c2cccnc2)c2c([nH]c1=S)CCCC2` the Potency was inconclusive: 15.8 µM [inhibitor, partial curve, poor fit].
With `CCC[n+]1c(C)sc2c(OC)ccc(OC)c21` the Potency was inconclusive: 7.94 µM [inhibitor, partial curve].
With `O=C(Nc1ccc(C(=O)N2CCCCC2)cc1)c1ccccc1` the Potency was inconclusive: 22.4 µM [inhibitor, single point].
`CCOc1ccc(-c2nc(SCC(=O)c3ccccc3)n[nH]2)cc1` was tested, and the “activity, negative = inhibition” value was inactive: -17.5%.
With `c1ccc(COc2ccc(-c3cc4nc(NCc5ccc6c(c5)OCO6)ccn4n3)cc2)cc1` the “activity, negative = inhibition” value was inactive: 2.24%.
With `O=C(NCCCO)c1ccc2nc(-c3ccco3)c(-c3ccco3)nc2c1` the Potency was inconclusive: 39.8 µM [inhibitor, partial curve, poor fit].
For `N[C@@H](C(=O)N[C@@H]1C(=O)N2C(C(=O)O)=C(CSc3cn[nH]n3)CS[C@H]12)c1ccc(O)cc1`, the Potency was inconclusive: 31.6 µM [inhibitor, partial curve, poor fit].
In the case of `CCNC(=S)Nc1ccc2c(c1)c(=O)n(C)n2Cc1ccc(Cl)cc1`, the Potency is reported as inconclusive: 39.8 µM [inhibitor, single point].
`C[C@]12CC[C@@H]3c4cc(O)c(O)cc4CC[C@H]3[C@@H]1CC[C@@H]2O` was tested, and the Potency was inconclusive: 7.08 µM [inhibitor, partial curve].
With `C=CCN1CCN(C(c2ccccc2)c2nnnn2CCC(C)C)CC1` (stereo unspecified) the Potency was inconclusive: 11.2 µM [inhibitor, partial curve].
For `COCCNC(=O)/C(C#N)=C/c1ccc(O)cc1`, the Potency was inconclusive: 25.1 µM [inhibitor, single point].
With `O=[N+]([O-])c1ccc(OCc2n[nH]c(=S)n2-c2ccccc2)cc1` the Potency was inconclusive: 7.94 µM [inhibitor, partial curve].
`CC(C)c1cnc2c(c1SCC(=O)N1CCCCC1)c(=O)n(C)c(=O)n2C` was tested, and the Potency was inconclusive: 31.6 µM [inhibitor, single point].
With `COc1ccc(C(=O)Nc2ccc(NC(=O)c3ccccn3)cn2)cc1` the “activity, negative = inhibition” value was inactive: 9.82%.
With `CCOC(=O)c1c(NC(=O)c2c(Br)cnn2CC)sc(C)c1C` the Potency was inconclusive: 28.2 µM [inhibitor, partial curve, poor fit].
With `COC(=O)c1ccc(NC(=S)NNC(=O)CC(C)C)cc1` the Potency was inconclusive: 22.4 µM [inhibitor, partial curve, poor fit].
